The record followed here is the RNAGym collection of RNA variant scans (doi:10.7554/elife.90254).

B1: OR4K15 (parent)
chain: GUUAACGGUCAUAGGCCAUGGAAACUAGGAGCACCAUUUCGCUGCCAGUGAAGAAAUGAACAAAGAAAAUCUGGGCCAGGCAGGCAUCAAAAGAAAUAGUCUUGCGCUCAACCAGAAAGUCUGUAAUCAUUUUAAGGGUA

The source gives no read counts; variants with many changes may rest on few reads.

The variants in this data set derive from B1. Put plainly: self-cleavage, relative activity (ratio to wild type); higher = more cleavage; in vitro, sequencing; the parent is a self-cleaving ribozyme.
Turning to GUUAACGGUCAUAGGCCAUGGAAACUAGGUGCACCAUUUCGCUGCCAGUGAAGAAAUGAACAAAGAAUAUCUGGGCCAGGCAGGCAUCAAAAGAAAUAGUCUUGCGCUCAACCAGAAAGUCUGUAAUCAUUCUAAGGGUA [A30U A68U U132C], the self-cleavage was found to be 0.95.

Turning to GUUAACGGUCAUAGGCCAUGGAAACUAGGUGCACCAUUUCGCUGCCAGUGAAGAGAUGAACAAAGAAAAUCUGGGCCAGGCAGGCAUCAAAAGAAAUAGUCUUGCGCUCAACCAGGAAGUCUGUAAUCAUUUUAAGGGUA [A30U A55G A116G], the self-cleavage was 0.36.

For GUUAACGGUCAUAGGCCAUGGAAACUAGGUGCACCAUUUCGCUGCCGGCGAAGAAAUGAACAAAGAAAAUCUGGGCCAGGCAGGCAUCAAAAGAAAUAGUCUUGCGCUCAACCAGAAAGUCUGUAAUCAUUUUAAGGGUA [A30U A47G U49C], the self-cleavage is 1.28.

As to GUUAACGGUCAUAGGCCAUGGAAACUAGGUGCACCAUUACGCUGCCAGUGAAGAAAUGAACAAGGAAAAUCUGGGCCAGGCAGGCAUCAAAAGAAAUAGUCUUGCGCUCAGCCAGGAAGUCUGUAAUCAUUUUAAGGGUA [A30U U39A A64G A111G A116G], the self-cleavage was 0.01.

As for GUUAACGGUCAUAGGCCAUGGAAACUAGGAACACCGUUUCGCUGCCAGUGAAGAAAGGAACAAAGAAAAUCUGGGCCAGGCAGGCAUCAAAAGAAAUAGUCUUGCGCCCAACCAGAAAGUCUGUAAUCAUUUUAAGGGUA [G31A A36G U57G U108C], the self-cleavage came to 0.02.

For GUUAACGGUCAUAGGCCAUGGAAACUAGGUGCACCAUUCCGCUGCCAGCGAAGAAAUGAGCAAAGAAAAUCUGGGCCAGGCAGGCAUCAAAAGAAAUAGUCUUGCGCUCAACCAGAAAGUCUGUAAUCAUUCUAAGGGUA [A30U U39C U49C A60G U132C], the self-cleavage amounted to 1.01.

For GUUAACGGUCAUAGGCCAUGGAAACUAGGUGCACCAUUUCGCUGCCAGUGAAGAAAUGAACAAAGAAAAUCUGGGCCAGGCAGGCAACAAAAGAAAUAGUCUUGCGCUCAACCAGAAAGUCUGUAAUCACUUUAAGGGUA [A30U U87A U130C], the self-cleavage amounted to 1.28.

On to GUUAACGGUCAUAGGCCAUGGAAACUAGGUGCACCAUUUCGCUGCCAGUGAGGAAAUGAACAAAGAAAAUCUGGGCCAGGCAGGCAUCAAAAGAGAUAGUCUUGCGCUCAACCAGAAAGUCUGUAAUCAUUUUAAGGGUA [A30U A52G A95G], for which the self-cleavage was found to be 0.98.

With GUUAACGGUCAUAGGCCAUGGAAACUAGGUGCACCAUUUCGCCGCCAGUGAAGAAAUGAACAAAGAAAAUCUGGGCCAGGCAGGCACCAAAAGAAAUAGUCUUGCGCUCAACCAGAAAGCCUGUAAUCAUUUUAAGGGUA [A30U U43C U87C U120C], the self-cleavage was 0.55.

For GUUAACGGUCAUAGGCCAUGGAAACUAGGUGCACCAUUUCGCUGCCAGUGAAGAAAUGGACAAAGAAAAUCUGGGCCAGGCAGGCAUCAAAAGAGAUAGUCUUGCGCUCAACCAGAAAGUCUGUAAUCAUUUUAAGGGUA [A30U A59G A95G], the self-cleavage is 1.25.

Take GUUAACGGUCAUAGGCCAUGGAAACUAGGUGCACCAUUUCGCUGCCAGUGAAGAAAUGAACUAAGAAAAUCUGGGCCAGGCAGGCAUCAAAAGAAUUAGUCUUGCGCUCAACCAGAGAGUCUGUAAUCAUUUUAAGGGUA [A30U A62U A96U A117G]: the self-cleavage is 1.41.

Take GUUAACGGUCAUAGGCCAUGGAAACUAGGAACACCGUUUCGCUGCCAGUGAAGAAAUGUACAAAGAAAAUCUGGGCCAGGCAGGCAUCAAAAGAAAUAGUCUUGCGCUCAACCAGAAAGUCUGUAAUCAUUUUAGGGGUA [G31A A36G A59U A135G]: the self-cleavage was found to be 1.27.

Consider GUUAACGGUCAUAGGCCAUGGAAACUAGGUGUACCAUUUCGCUGCCAGUGAAGAAAUGAACAAAGAAAAUCUGGGCCAGGCAGGCAUCAAAAGAAAUAGUCUUGCGCUCAACCAGAAAGUUCGUAAUCAUUUUAAGGGUA [A30U C32U C121U U122C], for which the self-cleavage turned out to be 1.44.

In the case of GUUAACGGUCAUAGGCCAUGGAAACUAGGUGCACCAUUUCGCUGCAAGUGAAGAAAUGGACAAAGAGAAUCUGGGCCAGGCAGGCAUCAAAAGAAAUAGUCUUGCGCUCAACCAGAAAGUCUGUAAUCACUUUAAGGGUA [A30U C46A A59G A67G U130C], the self-cleavage was determined as 1.11.

For GUUAACGGUCAUAGGCCAUGGAAACUAGGUGCACCAUUUCGCUGCCAGUGAAGAAAAGAACGAAGAAAAUCUGGGCCAGGCAGGCAUCAAAAGAAAUAGUCUUGCGCUCAACCAGUAAGUCUGUAAUCGCUUCAAGGGUA [A30U U57A A62G A116U A129G U130C U133C], the self-cleavage stood at 0.24.

As to GUUAACGGUCAUAGGCCAUGGAAACUAGGUGCACCAUUACGCUGCCAGUGAAGAAAUGGACAAAGAAAAUCUGGGCCAGGCAGGCAUCAAAAGAAAUAGUCUUGCGCUCAACCAGAAAGUCUGUAAUCAUUUUAAGGGUA [A30U U39A A59G], the self-cleavage amounted to 1.35.

For the variant GUUAACGGUCAUAGGCCAUGGAAACUAGGUGCACCAUUACGCUGCCAGUGAAGAAAUGAACAAAGAAAAUCUGGGCCGGGCAGGCAUCAAAAGAAAUAGUCUUGCGCUCAGCCAGAAAGUCUGUAAUCAUUUUAAGGGUA [A30U U39A A78G A111G], the self-cleavage was 0.02.

As for GUUAACGGUCAUAGGCCAUGGAAACUAGGUGCACCAUUUCGCUGCCAGUGAAGAGAUGAACAAAGAAAAUCUGGGCCAGGCAGGCAUCAAAAGAAAUAGUCUCGCGCUCAACCAGAAAGUGUGUAAUCAUUUUAAGGGUA [A30U A55G U103C C121G], the self-cleavage was determined as 0.49.

For the variant GUUAACGGUCAUAGGCCAUGGAAACUAGGUGCACCAUUUCGCUGCCAGUGAAGAAAUGAACAAAGAAAAUCUGGGCCAGGCAGGCACCAAAAGAAAUAGUCUUGCGCUCAACCAGAAAGUCUGUAAUCAUUUUAAGGGCA [A30U U87C U139C], the self-cleavage turned out to be 2.36.

For the variant GUUAACGGUCAUAGGCCAUGGAAACUAGGUGCACCAUUUCGCUGCUAGUGAAGAAGUAAACAAAGAAAAUCUGGGCCAGGCAGGCAUCAAAAGAAAUAGUCUUGCGCUCAACCAGAUAGUCCGUAAUCAUCUUAAGGGUA [A30U C46U A56G G58A A117U U122C U131C], the self-cleavage came out at 0.65.
